Test results as given in paper PMC6332232, “In Vitro Metabolic Pathways of the New Anti-Diabetic Drug Evogliptin in Human Liver Preparations” (Molecules, 2015).

Substrate: CC(C)(C)OC[C@@H]1C(=O)NCCN1C(=O)C[C@H](N)Cc1cc(F)c(F)cc1F
Experiment: not read
Conditions: other: CYP3A4, isoenzyme equation; pH 7.4; 37.0 °C

B1: CYP3A4 (Homo sapiens) (protein)
chain: MALIPDLAMETWLLLAVSLVLLYLYGTHSHGLFKKLGIPGPTPLPFLGNILSYHKGFCMFDMECHKKYGKVWGFYDGQQPVLAITDPDMIKTVLVKECYSVFTNRRPFGPVGFMKSAISIAEDEEWKRLRSLLSPTFTSGKLKEMVPIIAQYGDVLVRNLRREAETGKPVTLKDVFGAYSMDVITSTSFGVNIDSLNNPQDPFVENTKKLLRFDFLDPFFLSITVFPFLIPILEVLNICVFPREVTNFLRKSVKRMKESRLEDTQKHRVDFLQLMIDSQNSKETESHKALSDLELVAQSIIFIFAGYETTSSVLSFIMYELATHPDVQQKLQEEIDAVLPNKAPPTYDTVLQMEYLDMVVNETLRLFPIAMRLERVCKKDVEINGMFIPKGVVVMIPSYALHRDPKYWTEPEKFLPERFSKKNKDNIDPYIYTPFGSGPRNCIGMRFALMNMKLALIRVLQNFSFKPCKETQIPLKLSLGGLLQPEKPVVLKVESRDGTVSGA
B1 was tested, and the Km was 10.9 µM and 13.0 µM and the kcat was 112.8 pmol/min/pmol CYP.

“And” between values parts separate entries of the source, which are not always exact repeats. Equal values may be shown once.
